# Reference: PubChem BioAssay AID624418 (National Center for Advancing Translational Sciences (NCATS), 2012)
# Out of some 410,000 compounds screened, about 530 (0.13%) were called active. Inconclusive means that the source gave no clear call. Such entries were picked first, then a sample of the others. Calls follow the shape of the dose curve; as a rule, active = well fitted inhibition curve with a large enough effect; inconclusive = small, poorly fitted or top-dose-only effect, or another doubt; inactive = no such curve, though single readings can be large or run the other way. A potency beside an inconclusive call is a rough fit, not a confirmed value.
# Test: qHTS of GLP-1 Receptor Inverse Agonists: Cytotox Screen
# Conditions: HEK293 cAMP-luciferase reporter cells, luminescence, 24 h; series mostly up to 38.3 µM
# Procedure, shortened: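 Step one: seed cells (200 cells/uL, DMEM with 10% Nu serum, 1% pen-strep). Step two: 12-hour incubation at 37 deg C. Step three: pin 23 nL compound, incubate 24 hr. Step four: add luciferase reagent, read luminescence 12 min later.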
# Potency is read from the fitted curve at half-maximal effect.
row,SMILES,Potency
1,O=C(Cn1ncc2c(=O)oc3ccccc3c21)N1CCN(c2ccccn2)CC1,"inconclusive: 22.4 µM [inhibitor, partial curve, poor fit]"
2,O=[N+]([O-])c1cc(Cl)cc(/C=N/Nc2nc3ccccc3s2)c1O,"inconclusive: 0.891 µM [inhibitor, full curve, poor fit]"
3,Cc1cccc(N2CCN(C(=O)CCc3nc4ccccc4c(=O)[nH]3)CC2)c1C,"inconclusive: 28.2 µM [inhibitor, single point]"
4,COc1ccc(OCCC(=O)OCC(=O)NC(=O)NC2CCCCC2)cc1,inactive
5,COc1ccc(C(=O)C[n+]2cccc3cc(OC)ccc32)cc1,"inconclusive: 28.2 µM [inhibitor, single point]"
6,COC(=O)C1=C(C)N(CCCC(=O)O)C(=O)NC1c1ccccc1OS(=O)(=O)c1ccc([N+](=O)[O-])cc1 (stereo not drawn),"inconclusive: 20 µM [inhibitor, single point]"
7,COc1ccc(OCCC(=O)c2ccc(OC)cc2)cc1,"inconclusive: 31.6 µM [inhibitor, single point]"
8,S=C(Nc1ccc(Cl)cc1)NC1CCN(Cc2ccccc2)CC1,"inconclusive: 8.91 µM [inhibitor, partial curve]"
9,Cc1cc(F)ccc1NC(=O)CCS(=O)(=O)c1cccc2nsnc12,inactive
10,COc1ccc2c(c1)C1=C(CC2)C(c2ccc(C)cc2)NC(=S)N1 (stereo not drawn),"inconclusive: 8.91 µM [inhibitor, partial curve]"
11,Cc1cccc(NC(=O)CSc2nc3c(oc4ccccc43)c(=O)n2-c2ccccc2)c1C,inactive
12,COc1ccccc1OCC(O)Cn1c(=N)n(Cc2ccccc2)c2ccccc21 (stereo not drawn),"inconclusive: 11.2 µM [inhibitor, partial curve, poor fit]"
13,CCCCNc1c([N+](=O)[O-])ncn1C,"inconclusive: 10 µM [inhibitor, single point]"
14,CC1(C)Cc2c(c(-c3ccco3)nc3sc4c(NCCCO)ncnc4c23)CO1,inactive
15,CCN(C(=S)NC(=O)c1ccccc1Br)C1CCCCC1,"inconclusive: 14.1 µM [inhibitor, partial curve, poor fit]"
16,O=C(Nc1nc2ccccc2s1)c1cc2c(s1)-c1ccccc1OC2,inactive
17,O=C(Cn1nnc(-c2ccccc2)n1)N/N=C/c1cc([N+](=O)[O-])ccc1O,inactive
18,Cc1ccccc1NC(=S)NC(=O)Cc1ccc(Cl)cc1,"inconclusive: 28.2 µM [inhibitor, single point]"
19,CC(C)[Si]1(C(C)C)OCC2OC(n3cnc4c(N)ncnc43)C(N)C2O[Si](C(C)C)(C(C)C)O1 (stereo not drawn),"inconclusive: 11.2 µM [inhibitor, partial curve, poor fit]"
20,COc1cc(CNC(=O)C2CC(O)CN2C(=O)Nc2ccccc2)cc(OC)c1OC (stereo not drawn),inactive
21,COc1ccccc1/C=C/CN1CCC(Oc2ccc(C(=O)N3CCCCC3)cc2)CC1,"inconclusive: 12.6 µM [inhibitor, single point]"
22,COc1cccc(Nc2nc(-c3cccs3)nc3ccccc23)c1,inactive

row,SMILES,Potency
1,COc1ccc(OC)c(NC(=O)Nc2cccc(OCc3cc(=O)n4cc(C)ccc4n3)c2)c1,inactive
2,C=CCN(CC=C)C(=S)NC(=O)c1ccc(-c2ccccc2)cc1,"inconclusive: 7.94 µM [inhibitor, partial curve, poor fit]"
3,C/C(CC(=O)Nc1ccc(C)c(Cl)c1)=N\NC(=O)c1ccccn1,inactive
4,CCCCCOCC1CC(C/C(C)=N/NC(N)=S)C(=O)O1 (stereo not drawn),"inconclusive: 8.91 µM [inhibitor, partial curve, poor fit]"
5,O=c1c(-c2ccccc2)coc2c(CN3CCCC3)c(O)ccc12,inactive
6,CCOC(=O)NCc1cc(-c2nn(C)c(=O)c3ccccc23)ccc1C,"inconclusive: 31.6 µM [inhibitor, single point]"
7,COc1ccc(CC(=O)Nc2c(C(=O)N3CCN(c4ccccc4F)CC3)oc3ccccc23)cc1OC,"inconclusive: 14.1 µM [inhibitor, single point]"
8,NCCCCCc1nnc(SCc2ccc(Cl)cc2Cl)o1,"inconclusive: 11.2 µM [inhibitor, partial curve]"
9,COc1ccc(C(C(=O)NC2CCCCC2)N(C(=O)CCl)c2ccc(Cl)cc2)cc1 (stereo not drawn),"inconclusive: 11.2 µM [inhibitor, partial curve, poor fit]"
10,COc1ccc(-c2nc(NC(=O)C3CC(=O)N(c4ccc5c(c4)OCCO5)C3)sc2C)cc1 (stereo not drawn),"inconclusive: 5.62 µM [inhibitor, partial curve]"
11,COc1ccc(/C=C2\SC(=S)N(CCCC(=O)Nc3cccc(C(=O)O)c3)C2=O)cc1OC,"inconclusive: 12.6 µM [inhibitor, partial curve, poor fit]"
12,COc1ccc(OC)c(NC(=O)CCNS(=O)(=O)c2cccc3nonc23)c1,"inconclusive: 2.82 µM [inhibitor, partial curve, poor fit]"
13,Nc1c(C(=O)NCc2ccco2)sc2nc(N3CCOCC3)c3c(c12)CCCC3,inactive
14,N#CC1=C(N)NC(SCc2ccc(Cl)cc2)=C(C#N)C12CCCCC2,"inconclusive: 14.1 µM [inhibitor, single point]"
15,C=CCOc1ccc(CNc2nccs2)cc1OCC,inactive
16,O=C1CC(=Nc2ccccc2)NN1c1ccccc1,"inconclusive: 28.2 µM [inhibitor, single point]"
17,O=c1c2ccccc2nc(/C=C/c2ccc([N+](=O)[O-])o2)n1CCCO,"inconclusive: 3.98 µM [inhibitor, full curve]"
18,Cc1cc(C)nc(/N=C(\N)Nc2ccc(C)c([N+](=O)[O-])c2)n1,"inconclusive: 28.2 µM [inhibitor, single point]"
19,COc1ccc(O)c(/C=N/Nc2nc(C)cc(-c3ccccc3)n2)c1,"inconclusive: 2.51 µM [inhibitor, partial curve, poor fit]"
20,COc1ccccc1CNS(=O)(=O)c1c(C(=O)N2CCC(C)CC2)c(C)n(C)c1C,inactive
21,O=C(CSc1ccc2nnc(-c3ccc(F)cc3)n2n1)N1CCCc2ccccc21,"inconclusive: 12.6 µM [inhibitor, single point]"
